{"source": "PubChem BioAssay AID624417", "about": "(National Center for Advancing Translational Sciences (NCATS), 2012)", "note": "The campaign covered roughly 410,000 compounds. About 6,400 (1.6%) were called active. Inconclusive means that the source gave no clear call. Such entries were picked first, then a sample of the others. Calls come from the whole dose curve; as a rule, active = well fitted inhibition curve with a large enough effect; inconclusive = small, poorly fitted or top-dose-only effect; inactive = no such curve, though single readings can be large or run the other way. No potency is given beside an inconclusive call; the fits are too rough. Potency is the fitted concentration of half-maximal effect; tags give direction and shape of the fitted curve."}
{"target": "Glucagon-like peptide 1 receptor (Homo sapiens) (UniProt P43220)", "sequence (P43220 whole entry, looked up)": "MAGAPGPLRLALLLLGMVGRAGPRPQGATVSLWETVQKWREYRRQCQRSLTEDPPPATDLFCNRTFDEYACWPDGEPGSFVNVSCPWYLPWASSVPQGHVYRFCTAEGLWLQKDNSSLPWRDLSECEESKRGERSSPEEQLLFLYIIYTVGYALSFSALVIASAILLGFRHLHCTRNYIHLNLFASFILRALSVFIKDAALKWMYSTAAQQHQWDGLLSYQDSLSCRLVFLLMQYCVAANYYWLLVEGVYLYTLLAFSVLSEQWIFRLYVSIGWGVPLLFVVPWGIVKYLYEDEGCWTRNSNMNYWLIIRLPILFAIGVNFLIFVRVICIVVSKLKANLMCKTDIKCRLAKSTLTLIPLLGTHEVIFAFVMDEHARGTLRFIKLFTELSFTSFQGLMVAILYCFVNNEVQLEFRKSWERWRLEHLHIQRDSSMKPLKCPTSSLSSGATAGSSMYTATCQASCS", "test": "qHTS of GLP-1 Receptor Inverse Agonists (Inhibition Mode); note: nearly all actives have a fitted effect of over 55% in size", "details": "HEK293 GLP-1R CRE-luciferase, luminescence, 24 h, GLP-1R form is constitutively active; series mostly up to 38.3 µM", "how_it_was_run": "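Assay principle: reduced luminescence from a cAMP-responsive reporter in HEK293 cells co-expressing a constitutively active GLP-1R. Conditions: 24 hr compound incubation, 37 deg C, 5% CO2.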"}
{"smiles": "Clc1ccc(/C=N/N2CCN(Cc3ccccc3)CC2)cc1", "Potency": "inconclusive [inhibitor, single point]"}
{"smiles": "CCn1c2ccccc2c2cc(CN3CCN(Cc4cc(OC)c(O)c(OC)c4)CC3)ccc21", "Potency": "active: 11.2 µM"}
{"smiles": "Cn1nnc(NC(=S)NC(=O)c2cc(Cl)ccc2Cl)n1", "Potency": "inconclusive [inhibitor, single point]"}
{"smiles": "CCCN(CCC)S(=O)(=O)c1cccc(-c2csc(C)n2)c1", "Potency": "inconclusive [inhibitor, single point]"}
{"smiles": "CC(C(=O)Nc1ccc2c(c1)OCO2)N(C)CC(=O)Nc1ccccc1Cl", "note": "(centres undefined)", "Potency": "inconclusive [inhibitor, partial curve, poor fit]"}
{"smiles": "CCCCc1ccc(NC(=S)NCC2CCCO2)cc1", "note": "(centres undefined)", "Potency": "inconclusive [inhibitor, partial curve, poor fit]"}
{"smiles": "CCOc1ccccc1NC(=O)CCCc1nc(-c2ccccc2Cl)no1", "Potency": "inconclusive [inhibitor, single point]"}
{"smiles": "CC(C)(C)C(=O)N1CCc2cc(-c3csc(N)n3)ccc21", "Potency": "inconclusive [inhibitor, partial curve, poor fit]"}
{"smiles": "CC(C)c1ccc(S(=O)(=O)Nc2ccc(SC(F)F)cc2)cc1", "Potency": "inconclusive [inhibitor, single point]"}
{"smiles": "CCN(CC)c1ccc(/C=C2\\CCC(/C=N/NC(=O)c3ccc(=O)n(C)c3)=C2N2CCOCC2)cc1", "Potency": "inactive"}
{"smiles": "CCCCNC(=O)CN1C(=O)c2cccnc2Sc2ccccc21", "Potency": "inactive"}
{"smiles": "Cc1cc(C)c(S(=O)(=O)NCC2CCC(C(=O)NCCCN3CCC(C)CC3)CC2)c(C)c1", "note": "(centres undefined)", "Potency": "inconclusive [inhibitor, single point]"}
{"smiles": "O=C(c1ccccc1Sc1ccccc1[N+](=O)[O-])N1CCCCC1", "Potency": "inactive"}
{"smiles": "COc1ccccc1C1CC(=O)NC(SCC(=O)Nc2ccccc2)=C1C#N", "note": "(centres undefined)", "Potency": "inconclusive [inhibitor, partial curve]"}
{"smiles": "CC1(C(=O)Nc2ccccc2)CCN1C(=O)C1(c2ccccc2)CC1", "note": "(centres undefined)", "Potency": "inconclusive [inhibitor, single point]"}
{"smiles": "O=C(/C=C/c1cccc(Cl)c1)NCc1cccs1", "Potency": "inactive"}
{"smiles": "CCN(CC(=O)Nc1ccc(OC)cc1)C(=O)c1ccccc1Sc1ccccc1C#N", "Potency": "inconclusive [inhibitor, single point]"}
{"smiles": "CC(=O)N1CC(C)Sc2ccc(S(=O)(=O)NCc3ccccc3Cl)cc21", "note": "(centres undefined)", "Potency": "inconclusive [inhibitor, partial curve]"}
{"smiles": "COc1ccc(-c2csc(C(O)c3cccc(OC)c3)n2)cc1", "note": "(centres undefined)", "Potency": "inconclusive [inhibitor, single point]"}
{"smiles": "CCCCNC(=O)c1ccc2c(c1)N(CC)C(=O)c1ccccc1S2", "Potency": "inconclusive [inhibitor, single point]"}
{"smiles": "CCCn1c(C2CCCN2c2nc(C)cs2)nc2cc(Cl)c(Cl)cc21", "note": "(centres undefined)", "Potency": "inconclusive [inhibitor, partial curve, poor fit]"}
{"smiles": "O=C(NCc1cccc(Cl)c1)N1CCN(S(=O)(=O)c2ccccc2F)CC1", "Potency": "inconclusive [inhibitor, single point]"}
{"smiles": "Cc1ccc(Nc2nc(-c3ccc(C)cc3)c(CC(=O)O)s2)cc1", "Potency": "inconclusive [inhibitor, single point]"}
{"smiles": "COc1cccc(NC(=O)CN(C)C(=O)/C=C/c2ccc(S(=O)(=O)N3CCCCCC3)cc2)c1", "Potency": "inconclusive [inhibitor, single point]"}
{"smiles": "CCOC(=O)N1CCN(C(=O)CSCc2ccc(Cl)cc2)CC1", "Potency": "inactive"}
{"smiles": "Cc1ccc(C(CC(=O)O)NC(=O)CCNC(=O)c2ccco2)cc1", "note": "(centres undefined)", "Potency": "inconclusive [inhibitor, partial curve, poor fit]"}
{"smiles": "O=C(Nc1ccc(Cl)cc1N1CCOCC1)C1CCCCC1", "Potency": "inconclusive [inhibitor, single point]"}
{"smiles": "COc1ccc(NC(=O)c2cc3ccccc3o2)cc1S(=O)(=O)N1CCCCC1", "Potency": "inconclusive [inhibitor, partial curve]"}
{"smiles": "Cc1nc2c(C)cccc2cc1C(=O)N/N=C/c1cccc([N+](=O)[O-])c1", "Potency": "inconclusive [inhibitor, partial curve]"}
{"smiles": "Cc1ccccc1OCc1nc2c3cnn(-c4cccc(F)c4)c3ncn2n1", "Potency": "inactive"}
{"smiles": "CCOc1ccccc1NC(=O)C(NCC1(N2CCCCC2)CCCCC1)c1ccccc1", "note": "(centres undefined)", "Potency": "inconclusive [inhibitor, single point]"}
{"smiles": "O=C(Nc1ccc(NC(=O)c2cc3ccccc3o2)cc1)c1ccco1", "Potency": "inactive"}
{"smiles": "Cc1cc(C)n(-c2ccc(C(=O)N3CCN(S(=O)(=O)c4ccc(Br)cc4Cl)CC3)cc2)n1", "Potency": "inconclusive [inhibitor, partial curve, poor fit]"}
{"smiles": "COc1ccc(CCC(C)NCc2cc(OC)cc(OC)c2)cc1", "note": "(centres undefined)", "Potency": "inactive"}
{"smiles": "O=C(NCCc1ccccc1)C1CCCN(C(=O)Nc2ccc(F)cc2)C1", "note": "(centres undefined)", "Potency": "inconclusive [inhibitor, single point]"}
{"smiles": "COC(=O)C1=C(C)NC(=O)NC1c1c(O)ccc2ccccc12", "note": "(centres undefined)", "Potency": "inactive"}
{"smiles": "Cc1cc(S(=O)(=O)Nc2ccc(C(=O)N3CCN(c4ccccc4O)CC3)cc2)ccc1F", "Potency": "inconclusive [inhibitor, single point]"}
{"smiles": "CCC[C@@H](CN1CCC[C@H]1CN1C(N)=NC[C@@H]1Cc1ccccc1)N1C[C@@H]([C@H](C)CC)N(CCCC2CCCC2)C1=N", "Potency": "inconclusive [inhibitor, single point]"}
{"smiles": "CCOC(=O)c1ccc(S(=O)(=O)N2CCC(N3CCCCCC3)CC2)cc1", "Potency": "inactive"}
{"smiles": "COc1ccc(-c2oc3ccccc3c2C(=O)OCc2ccccc2)cc1", "Potency": "inconclusive [inhibitor, single point]"}
{"smiles": "CC(C)c1ccc(C(C(=O)NC2CCCCC2)N(C(=O)c2csnn2)C2CC2)cc1", "note": "(centres undefined)", "Potency": "inconclusive [inhibitor, full curve]"}
{"smiles": "CCOC(=O)c1c(-c2ccccc2)csc1NC(=O)C(C)NCc1ccco1", "note": "(centres undefined)", "Potency": "inconclusive [inhibitor, partial curve, poor fit]"}
{"smiles": "CCOc1c(Cl)cc(/C=N/NC(N)=S)cc1OC", "Potency": "inconclusive [inhibitor, single point]"}
{"smiles": "c1ccc2c(c1)N1CCN=C1N2CCN1CCCCC1", "Potency": "inconclusive [inhibitor, partial curve]"}
{"smiles": "CC1CCCCN1CCNC(=O)c1ccc2c(=O)n(Cc3ccc(Cl)cc3)c(=S)[nH]c2c1", "note": "(centres undefined)", "Potency": "inconclusive [inhibitor, partial curve, poor fit]"}
{"smiles": "CN1CCN(c2ccc(CNC(=O)c3cccc4c(-c5ccc(F)c(F)c5)coc34)cc2)CC1", "Potency": "inconclusive [inhibitor, partial curve, poor fit]"}
{"smiles": "CCC(=O)N(Cc1ccco1)c1nc(-c2ccccc2)cs1", "Potency": "inconclusive [inhibitor, single point]"}
{"smiles": "O=C(c1ccccc1)c1sc(Nc2ccc3c(c2)OCO3)nc1-c1ccccc1", "Potency": "inconclusive [inhibitor, full curve]"}
{"smiles": "Cc1ccccc1CN1c2ccccc2-c2nc(SCC(=O)c3ccccc3)ncc2S1(=O)=O", "Potency": "inconclusive [inhibitor, single point]"}
{"smiles": "CCOC(=O)C1(C)CCN1C(=O)c1ccc(Cl)nc1", "note": "(centres undefined)", "Potency": "inactive"}
{"smiles": "OC(CSc1nnnn1-c1ccccc1)Cn1c2ccccc2c2ccccc21", "note": "(centres undefined)", "Potency": "inconclusive [inhibitor, partial curve, poor fit]"}
{"smiles": "Cc1c(C#N)c(N=CN(C)C)c(C(=O)c2ccccc2)n1-c1ccc(Br)cc1", "Potency": "inconclusive [inhibitor, single point]"}
{"smiles": "COc1ccc(C(=O)/C=C/c2ccc(OC)c(Cn3nnc4ccccc43)c2)cc1", "Potency": "inconclusive [inhibitor, single point]"}
{"smiles": "O=C(CN1CCN(Cc2ccccc2)CC1)Nc1ccc([N+](=O)[O-])cc1C(=O)Nc1ccccc1F", "Potency": "inconclusive [inhibitor, partial curve, poor fit]"}
{"smiles": "CC(C)CC(=O)Nc1ccc2c(c1)oc1ccccc12", "Potency": "inconclusive [inhibitor, partial curve]"}
{"smiles": "CN1CCN(c2ccc([N+](=O)[O-])cc2C(=O)c2ccc(Cl)cc2)CC1", "Potency": "inconclusive [inhibitor, partial curve, poor fit]"}
{"smiles": "O=C(Cn1cc(C(=O)C(F)(F)F)c2ccccc21)N1CCCCCC1", "Potency": "inconclusive [inhibitor, single point]"}
{"smiles": "COc1ccc(/C=C2\\COc3ccccc3C2=O)c(OC)c1", "Potency": "inconclusive [inhibitor, partial curve]"}
{"smiles": "COc1ccc(OC)c(NC(=O)Cn2c(=O)c3cccn3c3ccccc32)c1", "Potency": "inactive"}
{"smiles": "O=C(Nc1cccc(Cl)c1)C1CCCN(c2nn3cc(-c4ccc(F)cc4)nc3s2)C1", "note": "(centres undefined)", "Potency": "inconclusive [inhibitor, partial curve, poor fit]"}
{"smiles": "C=CC(=O)Nc1cccc(N(C)c2ccnc(Nc3ccc(N4CCN(C)CC4)cc3)n2)c1", "Potency": "inactive"}
{"smiles": "O=C1N(Cc2cccc(Cl)c2)C[C@@H]2C[C@@H](c3ccco3)N3CCC[C@@]123", "Potency": "inconclusive [inhibitor, full curve, poor fit]"}
{"smiles": "C=CCc1cccc(/C=N/NC(=O)C(C)Nc2cccc(C)c2)c1O", "note": "(centres undefined)", "Potency": "inconclusive [inhibitor, partial curve, poor fit]"}
{"smiles": "CC(=O)Nc1ccc2c(c1)Cc1cc(N3C(=O)C=CC3=O)ccc1-2", "Potency": "inconclusive [inhibitor, single point]"}
